Experimental data as given in PubChem BioAssay (NCI).
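1) Cells in 96-well plates. 2) Compound, 48 h, 5 concentrations. 3) Linear interpolation between surrounding doses. 4) Unreached endpoint = highest concentration. TGI is the concentration that stops growth completely.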 Some entries of the source have several records that differ or are many. The list is limited to them. An entry can have further records. The tests behind the records often covered other concentration ranges, not given here; a value can be the end of its range.

What was measured:
Test in all cases: DTP human tumour cell line panel, 48 h
SR leukemia = system: SR leukemia
NCI-H522 lung = system: NCI-H522 lung
HL-60(TB) leukemia = system: HL-60(TB) leukemia
MOLT-4 leukemia = system: MOLT-4 leukemia
PC-3 prostate = system: PC-3 prostate

Structure (SMILES): O=C(NNc1nc2cc(F)c(F)cc2n2cccc12)c1cccnn1
- TGI (SR leukemia): 30 µM and 1.29 µM
- TGI (NCI-H522 lung): 30 µM and 1.29 µM
- TGI (HL-60(TB) leukemia): 8.37 µM and 828 nM
- TGI (MOLT-4 leukemia): 30 µM and 963 nM
- TGI (PC-3 prostate): 8.04 µM and > 100 µM
